Assay results taken from patent US20150307938A1, “METHOD TO IDENTIFY A NOVEL CLASS OF IMMUNOLOGIC ADJUVANTS” (Lancell, L.L.C., priority 2011, published 2015).

Tested on: dendritic cells
Assay: Activated dendritic cells in the draining lymph node after topical application (earlier work)
Type: in vivo
Details: mice injected intradermally with peptide (SIINFEKL), topical DBP
Text: We previously identified an initial group of small lipophilic molecules that can traverse the stratum corneum, activate skin dendritic cells and induce their migration to the draining lymph node (U.S. Pat. No. 6,210,672). For example, such lipophilic molecules may include dibutyl phthalate, dibutyl-D-tartarate, N,N-diethyl-toluamide, dibutylfumarate, di(2-ethylhexyl)fumarate, diisooctylmaleate, diethylhexylmaleate, diisooctylfumarate, benzoic acid, behenylmaleate, dioctylphthalate, dibutylmaleate, dioctymaleate, dibutylsuccinate, dioctylsuccinate, dinonylphthalate, diisononylphthalate, dimethylphthalate, diethylphthalate, dipropylphthalate, diphenylphthalate, dibenzylbutylphthalate, diethylmethylphthalate and camphor. […] This response occurs in the absence of antigen.
Topical DBP induced a 16-fold increase in the IgG1 Ab response to OVA adsorbed to alum and increased the IgG2c response 26-fold.

CCCCOC(=O)c1ccccc1C(=O)OCCCC [DBP, dibutylphthalate]
Peptide-bearing activated dendritic cells in the draining lymph node, increase: 40 fold
